Assay results reported in publication PMC7819943, “Rice protein-binding microarrays: a tool to detect cis-acting elements near promoter regions in rice”.
Some of the results follow.

Each sequence was assayed against T1, OsWOX13 (Oryza sativa, UniProt Q5QMM3 1-267) (assay: protein-binding microarray (RPBM); PBS, 2% BSA, 51.3 ng/ul salmon testes DNA, 50 uM zinc acetate, 200 nM TF, 25 C, 1 h; high values mean tight binding). Details: protein: recombinant; tags: N-terminal polyhistidine and DsRed monomer fusion (pET32a); label: CyDye5-dUTP incorporated in the synthesized complementary strand; 3' TTTTT single-stranded linker to array surface; dsDNA, one strand shown.
T1 sequence: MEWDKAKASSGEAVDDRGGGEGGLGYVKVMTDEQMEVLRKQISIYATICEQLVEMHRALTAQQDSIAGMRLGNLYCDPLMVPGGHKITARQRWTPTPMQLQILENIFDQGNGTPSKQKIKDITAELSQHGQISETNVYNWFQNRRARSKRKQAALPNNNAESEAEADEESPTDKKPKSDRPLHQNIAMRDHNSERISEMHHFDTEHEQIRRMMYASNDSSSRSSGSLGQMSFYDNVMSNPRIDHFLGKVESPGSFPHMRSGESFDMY
Method in brief: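 Binding signal is reported as fluorescence intensity per feature (arbitrary units) from an Axon 4000B scanner. Incubation used 200 nM of each Ni–NTA-purified, N-terminally polyhistidine- and DsRed-fused transcription factor from E. coli BL21-CodonPlus on a double-stranded custom Agilent array for 1 h at 25 °C, with 50 µM zinc acetate in the buffer, followed by washing.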
“TTTCCGGTATTGCCATAATTAAACTTGACGGAAAGATGAGCGGAGTCACCTAGTGCAG” was tested, and the binding signal was 3170 fluorescence intensity (a.u.).
With “ACAGATTGCAACAAGATTGTATCACTAAACCACATGTTTCCGGAGTCACCTAGTGCAG” the binding signal was 12100 fluorescence intensity (a.u.).
In the case of “CATTCCATTCATGACGCCATTAATTTAGCTATTTGAGTCACGGAGTCACCTAGTGCAG”, the binding signal was 6290 fluorescence intensity (a.u.).
For “ACTATAAACAATCAACTAATCATCATTAAGAAATTACAGCCGGAGTCACCTAGTGCAG”, the binding signal was 14300 fluorescence intensity (a.u.).
In the case of “TGTTGATTATTTTACTGTAATCCCTGTGTACTTCTTGTCTCGGAGTCACCTAGTGCAG”, the binding signal was 43000 fluorescence intensity (a.u.).
“GAGAATTGCCCATTCAATTCGTCAGTTATGTAAAACTCATCGGAGTCACCTAGTGCAG” was tested, and the binding signal was 3680 fluorescence intensity (a.u.).
In the case of “CCTCCTAATAACGTGCTAATTACGACACGTGTTAACCATACGGAGTCACCTAGTGCAG”, the binding signal was 16400 fluorescence intensity (a.u.).
For “TGAGGACAGCTAATTGACAGTGGTTTCCTCCGCTTATCTCCGGAGTCACCTAGTGCAG”, the binding signal was 33800 fluorescence intensity (a.u.).
In the case of “TATCTCTAATTTAGTTAATTTAACTTGTTGATCGATCGCTCGGAGTCACCTAGTGCAG”, the binding signal was 21700 fluorescence intensity (a.u.).
For “ATCTGTCTGTCTGTCTGTCTGTTCTGTTGTATCCTTTCTTCGGAGTCACCTAGTGCAG”, the binding signal was 10600 fluorescence intensity (a.u.).
In the case of “ACATGGACTCTGATTAATAATTAATCGAAAATTGTGCAAGCGGAGTCACCTAGTGCAG”, the binding signal was 17100 fluorescence intensity (a.u.).
“ACAAAATTATTAAGCCTGATTAATCCATTATTGGTAAATGCGGAGTCACCTAGTGCAG” was tested, and the binding signal was 31700 fluorescence intensity (a.u.).
“TCAAATATTTAAATAGTTAAATTTTAAAATATGTGCGCATCGGAGTCACCTAGTGCAG” was tested, and the binding signal was 3370 fluorescence intensity (a.u.).
“GGAGTTAATTTGCTTTGCTTGTGCAAAATCTTACTGTGGGCGGAGTCACCTAGTGCAG” was tested, and the binding signal was 34400 fluorescence intensity (a.u.).
In the case of “CAAATTTGAGCACCCTCTCATGTCACTCACGTGAGTTGACCGGAGTCACCTAGTGCAG”, the binding signal was 3220 fluorescence intensity (a.u.).
For “TGATTGAACAATCAATTTAGACTAAACGAACGATCATGCTCGGAGTCACCTAGTGCAG”, the binding signal was 45700 fluorescence intensity (a.u.).
In the case of “GCTAGCTTTATTGATCATTAAACATTAAACATTGTTACATCGGAGTCACCTAGTGCAG”, the binding signal was 4380 fluorescence intensity (a.u.).
With “CTATGTAAATTAATGGTATTAGGATGATAAACTTATTTTGCGGAGTCACCTAGTGCAG” the binding signal was 11700 fluorescence intensity (a.u.).
With “AGCTGGGATGGTGACGAGGATTGATTCCCATCGGTGATCCCGGAGTCACCTAGTGCAG” the binding signal was 3340 fluorescence intensity (a.u.).
In the case of “GCGCGTGCCATCAATTAATGGGCCGGGACTAGGAGTGGGCCGGAGTCACCTAGTGCAG”, the binding signal was 6190 fluorescence intensity (a.u.).
In the case of “TACTACGTAATTGACTAGAGATCATGCTAGTGGCATCTTGCGGAGTCACCTAGTGCAG”, the binding signal was 39100 fluorescence intensity (a.u.).
With “CCTGAGTTAATTAATAGCCCGAGGCAGGGTTTGGCTGTGTCGGAGTCACCTAGTGCAG” the binding signal was 20600 fluorescence intensity (a.u.).
“CCCTCTTAATTAATAAAGCAAACATATCAGCTACTATATTCGGAGTCACCTAGTGCAG” was tested, and the binding signal was 3700 fluorescence intensity (a.u.).
For “ACACTATGATTATAATATATTTACATGTGTGAATTGTTTACGGAGTCACCTAGTGCAG”, the binding signal was 19900 fluorescence intensity (a.u.).
“TGAAATTTCTCCACAAGGCTTGATTGAACATTGCAGCCTCCGGAGTCACCTAGTGCAG” was tested, and the binding signal was 20500 fluorescence intensity (a.u.).
With “CCTAAATGACATTAAGTGGAAGTACTGTAATAATTCTATTCGGAGTCACCTAGTGCAG” the binding signal was 15400 fluorescence intensity (a.u.).
For “TATTCAATATGAATCTTGATTTGTTACATATTTTGAGTGGCGGAGTCACCTAGTGCAG”, the binding signal was 4250 fluorescence intensity (a.u.).
With “ACATTGATAGAATCGGGAGTGCATTTGCACAGCTTTACCACGGAGTCACCTAGTGCAG” the binding signal was 21000 fluorescence intensity (a.u.).
“ATTTAATATGTACTAATCCATCATTGTAACCTACTTCCTCCGGAGTCACCTAGTGCAG” was tested, and the binding signal was 3180 fluorescence intensity (a.u.).
“GGTAATGATATATTGGTTTATTTGTCTTCTTACCTGCCAACGGAGTCACCTAGTGCAG” was tested, and the binding signal was 10400 fluorescence intensity (a.u.).
“GGATTAATTAGGCTTAATAAATTCGTCTTGCAGTTTACAGCGGAGTCACCTAGTGCAG” was tested, and the binding signal was 22100 fluorescence intensity (a.u.).
With “CTTAATTAGAATCTAAAGATCTCCAAACATTCCCTTTGTCCGGAGTCACCTAGTGCAG” the binding signal was 35200 fluorescence intensity (a.u.).
In the case of “GCAATAATTGGCTGTATCTCTATTGAGCAAAGGCCGGGATCGGAGTCACCTAGTGCAG”, the binding signal was 36100 fluorescence intensity (a.u.).
“GCCTTCTAAATTGACCAATCTTTCAAGCAAGAATGAAGTTCGGAGTCACCTAGTGCAG” was tested, and the binding signal was 12400 fluorescence intensity (a.u.).
“CGAATCAAGCAGATAGATTGAAACGCTGACAAAACACTGGCGGAGTCACCTAGTGCAG” was tested, and the binding signal was 25100 fluorescence intensity (a.u.).
With “AAAATTAATTGTATTGGTTTTAATGTCATAGAGACGACGACGGAGTCACCTAGTGCAG” the binding signal was 35500 fluorescence intensity (a.u.).
“TGTGTCTCGTTTAATACTGATTACTATATTTTCAGGATGACGGAGTCACCTAGTGCAG” was tested, and the binding signal was 4280 fluorescence intensity (a.u.).
“AATCTTATCTTAATTATCGTCATTATCTATAACTAATGATCGGAGTCACCTAGTGCAG” was tested, and the binding signal was 7430 fluorescence intensity (a.u.).
In the case of “AACACCATACCAAAATCCAAATATACTTATATTTTACTTACGGAGTCACCTAGTGCAG”, the binding signal was 65000 fluorescence intensity (a.u.).
In the case of “CACCACTCCATCTCCTTAATTGCACTTCCATTTCACCTCACGGAGTCACCTAGTGCAG”, the binding signal was 5200 fluorescence intensity (a.u.).
For “TGTTAATGAATCTAGATAGATATATATGTCTAGATTCATTCGGAGTCACCTAGTGCAG”, the binding signal was 9740 fluorescence intensity (a.u.).
“GCCATGGTGATTACGAAATTAACATGTAGTACTACTAGTTCGGAGTCACCTAGTGCAG” was tested, and the binding signal was 20000 fluorescence intensity (a.u.).
